{"source": "a collection of fitness landscapes (doi:10.1016/j.celrep.2020.107928)", "parents": {"B1": {"name": "Caulobacter ParB omega fusion; a variant is named by its letters at X, in order, B8GW30 (parent)", "chain": "MESVVVGEPGMSEGRRGLGRGLSALLGEVDAAPAQAPGEQLGGSREAPIEILQRNPDQPRRTFREEDLEDLSNSIREKGVLQPILVRPSPDTAGEYQIVAGERAWRAAQRAGLKTVPIMVRELDDLAVLEIGIIENVQRADLNVLEEALSYKVLMEKFERTQENIAQTIGKSXSHVANXMRLLXLPDEVQSYLVSGELTAXHARAIAAAADPVALAKQIIEGGLSVRETEALARKAPNLSAGKSKGGRPPRVKDTDTQALESDLSSVLGLDVSIDHRGSTGTLTITYATLEQLDDLCNRLTRGI"}}, "note": "The full ranking holds about 81,000 sequences; the median of “one-hybrid fitness for binding NBS DNA” is about -0.1, and the highest 2% start at about 0.36. Some of the results follow."}
{"variants_of": "B1", "assay": "one-hybrid fitness for binding NBS DNA (the Noc-binding site; scaled: cognate 1, non-cognate 0); higher = stronger binding", "details": "with NBS DNA site", "outline": "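The reporter was HIS3, with the binding site 19 bp from the promoter, in E. coli USO used for bacterial one-hybrid selection of Caulobacter ParB libraries with four specificity codons randomised. Growth was on M9 lacking histidine, with 0.1 mM IPTG and 5 mM 3-AT, for 48 hours at 37°C. Illumina sequencing covered plasmids before and after selection; three replicate libraries were pooled and variants with under 10 reads dropped. A fitness score is the log change in variant-to-wild-type read ratio, rescaled to the cognate and non-cognate references.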"}
{"variant": "QMQY", "one-hybrid fitness for binding NBS DNA": 0.223}
{"variant": "VYLY", "one-hybrid fitness for binding NBS DNA": "≤ 0.2"}
{"variant": "GSRA", "one-hybrid fitness for binding NBS DNA": "≤ 0.2"}
{"variant": "PNRM", "one-hybrid fitness for binding NBS DNA": "≤ 0.2"}
{"variant": "IDMW", "one-hybrid fitness for binding NBS DNA": "≤ 0.2"}
{"variant": "LVSP", "one-hybrid fitness for binding NBS DNA": "≤ 0.2"}
{"variant": "DRRI", "one-hybrid fitness for binding NBS DNA": "≤ 0.2"}
{"variant": "NART", "one-hybrid fitness for binding NBS DNA": "≤ 0.2"}
{"variant": "CISN", "one-hybrid fitness for binding NBS DNA": "≤ 0.2"}
{"variant": "VRWH", "one-hybrid fitness for binding NBS DNA": "≤ 0.2"}
{"variant": "SVPL", "one-hybrid fitness for binding NBS DNA": "≤ 0.2"}
{"variant": "INKR", "one-hybrid fitness for binding NBS DNA": "≤ 0.2"}
{"variant": "KAMS", "one-hybrid fitness for binding NBS DNA": "≤ 0.2"}
{"variant": "SSSM", "one-hybrid fitness for binding NBS DNA": "≤ 0.2"}
{"variant": "EHVV", "one-hybrid fitness for binding NBS DNA": "≤ 0.2"}
{"variant": "VMNY", "one-hybrid fitness for binding NBS DNA": "≤ 0.2"}
{"variant": "PQTV", "one-hybrid fitness for binding NBS DNA": "≤ 0.2"}
{"variant": "ADVI", "one-hybrid fitness for binding NBS DNA": "≤ 0.2"}
{"variant": "QHWA", "one-hybrid fitness for binding NBS DNA": "≤ 0.2"}
{"variant": "ITGT", "one-hybrid fitness for binding NBS DNA": "≤ 0.2"}
{"variant": "CPKS", "one-hybrid fitness for binding NBS DNA": "≤ 0.2"}
{"variant": "LRNY", "one-hybrid fitness for binding NBS DNA": "≤ 0.2"}
{"variant": "ITCT", "one-hybrid fitness for binding NBS DNA": "≤ 0.2"}
{"variant": "NCAT", "one-hybrid fitness for binding NBS DNA": "≤ 0.2"}
{"variant": "KWVD", "one-hybrid fitness for binding NBS DNA": "≤ 0.2"}
{"variant": "RVLR", "one-hybrid fitness for binding NBS DNA": 0.289}
{"variant": "RLFY", "one-hybrid fitness for binding NBS DNA": "≤ 0.2"}
{"variant": "AWGS", "one-hybrid fitness for binding NBS DNA": "≤ 0.2"}
{"variant": "ETPV", "one-hybrid fitness for binding NBS DNA": "≤ 0.2"}
{"variant": "AYAA", "one-hybrid fitness for binding NBS DNA": "≤ 0.2"}
{"variant": "DNAL", "one-hybrid fitness for binding NBS DNA": "≤ 0.2"}
{"variant": "NRCR", "one-hybrid fitness for binding NBS DNA": "≤ 0.2"}
{"variant": "HSTS", "one-hybrid fitness for binding NBS DNA": "≤ 0.2"}
{"variant": "LFNN", "one-hybrid fitness for binding NBS DNA": "≤ 0.2"}
{"variant": "FLVT", "one-hybrid fitness for binding NBS DNA": "≤ 0.2"}
{"variant": "NVYL", "one-hybrid fitness for binding NBS DNA": "≤ 0.2"}
{"variant": "STDC", "one-hybrid fitness for binding NBS DNA": "≤ 0.2"}
{"variant": "KRKE", "one-hybrid fitness for binding NBS DNA": "≤ 0.2"}
{"variant": "KVPA", "one-hybrid fitness for binding NBS DNA": "≤ 0.2"}
{"variant": "RSAS", "one-hybrid fitness for binding NBS DNA": 0.424}
{"variant": "LDTN", "one-hybrid fitness for binding NBS DNA": "≤ 0.2"}
{"variant": "SCKH", "one-hybrid fitness for binding NBS DNA": "≤ 0.2"}
{"variant": "GAHV", "one-hybrid fitness for binding NBS DNA": "≤ 0.2"}
{"variant": "MRNT", "one-hybrid fitness for binding NBS DNA": 0.204}
{"variant": "FIFV", "one-hybrid fitness for binding NBS DNA": "≤ 0.2"}
{"variant": "WTRM", "one-hybrid fitness for binding NBS DNA": "≤ 0.2"}
{"variant": "SQSI", "one-hybrid fitness for binding NBS DNA": "≤ 0.2"}
{"variant": "TRWH", "one-hybrid fitness for binding NBS DNA": "≤ 0.2"}
{"variant": "HDRM", "one-hybrid fitness for binding NBS DNA": "≤ 0.2"}
{"variant": "VWTV", "one-hybrid fitness for binding NBS DNA": "≤ 0.2"}
{"variant": "ELNA", "one-hybrid fitness for binding NBS DNA": "≤ 0.2"}
{"variant": "TYTN", "one-hybrid fitness for binding NBS DNA": "≤ 0.2"}
{"variant": "SILL", "one-hybrid fitness for binding NBS DNA": "≤ 0.2"}
{"variant": "PHPI", "one-hybrid fitness for binding NBS DNA": "≤ 0.2"}
{"variant": "RVVP", "one-hybrid fitness for binding NBS DNA": "≤ 0.2"}
{"variant": "NPRR", "one-hybrid fitness for binding NBS DNA": "≤ 0.2"}
{"variant": "TVAL", "one-hybrid fitness for binding NBS DNA": "≤ 0.2"}
{"variant": "MSCK", "one-hybrid fitness for binding NBS DNA": "≤ 0.2"}
{"variant": "TMFC", "one-hybrid fitness for binding NBS DNA": "≤ 0.2"}
{"variant": "ERFT", "one-hybrid fitness for binding NBS DNA": "≤ 0.2"}
{"variant": "ADAE", "one-hybrid fitness for binding NBS DNA": "≤ 0.2"}
{"variant": "HPNM", "one-hybrid fitness for binding NBS DNA": "≤ 0.2"}
{"variant": "YSNR", "one-hybrid fitness for binding NBS DNA": "≤ 0.2"}
{"variant": "NSLE", "one-hybrid fitness for binding NBS DNA": "≤ 0.2"}
{"variant": "RSMG", "one-hybrid fitness for binding NBS DNA": "≤ 0.2"}
{"variant": "VAVC", "one-hybrid fitness for binding NBS DNA": "≤ 0.2"}
{"variant": "KDTE", "one-hybrid fitness for binding NBS DNA": "≤ 0.2"}
{"variant": "PFHH", "one-hybrid fitness for binding NBS DNA": "≤ 0.2"}
{"variant": "WAQR", "one-hybrid fitness for binding NBS DNA": "≤ 0.2"}
{"variant": "HARF", "one-hybrid fitness for binding NBS DNA": "≤ 0.2"}
{"variant": "IEVR", "one-hybrid fitness for binding NBS DNA": "≤ 0.2"}
{"variant": "DSKY", "one-hybrid fitness for binding NBS DNA": "≤ 0.2"}
{"variant": "KERR", "one-hybrid fitness for binding NBS DNA": "≤ 0.2"}
{"variant": "RGMG", "one-hybrid fitness for binding NBS DNA": "≤ 0.2"}
{"variant": "WMMR", "one-hybrid fitness for binding NBS DNA": "≤ 0.2"}
{"variant": "YCRH", "one-hybrid fitness for binding NBS DNA": "≤ 0.2"}
{"variant": "QLDP", "one-hybrid fitness for binding NBS DNA": "≤ 0.2"}
{"variant": "EIKR", "one-hybrid fitness for binding NBS DNA": "≤ 0.2"}
{"variant": "LCNH", "one-hybrid fitness for binding NBS DNA": "≤ 0.2"}
{"variant": "YVRR", "one-hybrid fitness for binding NBS DNA": "≤ 0.2"}
{"variant": "RSHN", "one-hybrid fitness for binding NBS DNA": "≤ 0.2"}
{"variant": "NSPS", "one-hybrid fitness for binding NBS DNA": "≤ 0.2"}
{"variant": "GTGG", "one-hybrid fitness for binding NBS DNA": "≤ 0.2"}
{"variant": "RCMN", "one-hybrid fitness for binding NBS DNA": "≤ 0.2"}
{"variant": "QIHD", "one-hybrid fitness for binding NBS DNA": "≤ 0.2"}
{"variant": "WDSG", "one-hybrid fitness for binding NBS DNA": "≤ 0.2"}
{"variant": "NAMD", "one-hybrid fitness for binding NBS DNA": "≤ 0.2"}
{"variant": "DWKF", "one-hybrid fitness for binding NBS DNA": "≤ 0.2"}
{"variant": "RHKM", "one-hybrid fitness for binding NBS DNA": 0.203}
{"variant": "EMIS", "one-hybrid fitness for binding NBS DNA": "≤ 0.2"}
{"variant": "AATH", "one-hybrid fitness for binding NBS DNA": "≤ 0.2"}
{"variant": "QFTA", "one-hybrid fitness for binding NBS DNA": "≤ 0.2"}
{"variant": "HDYC", "one-hybrid fitness for binding NBS DNA": "≤ 0.2"}
{"variant": "MFGS", "one-hybrid fitness for binding NBS DNA": "≤ 0.2"}
{"variant": "WVPI", "one-hybrid fitness for binding NBS DNA": "≤ 0.2"}
{"variant": "WPAR", "one-hybrid fitness for binding NBS DNA": "≤ 0.2"}
{"variant": "AFTY", "one-hybrid fitness for binding NBS DNA": "≤ 0.2"}
{"variant": "DIPS", "one-hybrid fitness for binding NBS DNA": "≤ 0.2"}
{"variant": "NVLP", "one-hybrid fitness for binding NBS DNA": "≤ 0.2"}
{"variant": "GRQF", "one-hybrid fitness for binding NBS DNA": "≤ 0.2"}
{"variant": "YHSR", "one-hybrid fitness for binding NBS DNA": "≤ 0.2"}
{"variant": "QADH", "one-hybrid fitness for binding NBS DNA": 0.204}
{"variant": "FKKC", "one-hybrid fitness for binding NBS DNA": "≤ 0.2"}
{"variant": "LYNE", "one-hybrid fitness for binding NBS DNA": "≤ 0.2"}
{"variant": "RLYV", "one-hybrid fitness for binding NBS DNA": "≤ 0.2"}
{"variant": "TGRL", "one-hybrid fitness for binding NBS DNA": "≤ 0.2"}
{"variant": "NSSL", "one-hybrid fitness for binding NBS DNA": "≤ 0.2"}
{"variant": "RRFS", "one-hybrid fitness for binding NBS DNA": 0.666}
{"variant": "QLCR", "one-hybrid fitness for binding NBS DNA": 0.468}
{"variant": "AWWV", "one-hybrid fitness for binding NBS DNA": "≤ 0.2"}
{"variant": "DTTS", "one-hybrid fitness for binding NBS DNA": "≤ 0.2"}
{"variant": "FVHG", "one-hybrid fitness for binding NBS DNA": "≤ 0.2"}
{"variant": "DNDR", "one-hybrid fitness for binding NBS DNA": "≤ 0.2"}
{"variant": "MYKA", "one-hybrid fitness for binding NBS DNA": "≤ 0.2"}
{"variant": "TPIE", "one-hybrid fitness for binding NBS DNA": "≤ 0.2"}
{"variant": "TELA", "one-hybrid fitness for binding NBS DNA": "≤ 0.2"}
{"variant": "TFHG", "one-hybrid fitness for binding NBS DNA": "≤ 0.2"}
{"variant": "FPHS", "one-hybrid fitness for binding NBS DNA": "≤ 0.2"}
{"variant": "DLSL", "one-hybrid fitness for binding NBS DNA": "≤ 0.2"}
{"variant": "WEYM", "one-hybrid fitness for binding NBS DNA": "≤ 0.2"}
{"variant": "VATY", "one-hybrid fitness for binding NBS DNA": "≤ 0.2"}
{"variant": "NVTP", "one-hybrid fitness for binding NBS DNA": "≤ 0.2"}
{"variant": "KEND", "one-hybrid fitness for binding NBS DNA": "≤ 0.2"}
{"variant": "QKCC", "one-hybrid fitness for binding NBS DNA": "≤ 0.2"}
{"variant": "YWLT", "one-hybrid fitness for binding NBS DNA": "≤ 0.2"}
{"variant": "RRLD", "one-hybrid fitness for binding NBS DNA": "≤ 0.2"}
{"variant": "TACL", "one-hybrid fitness for binding NBS DNA": "≤ 0.2"}
{"variant": "YDCT", "one-hybrid fitness for binding NBS DNA": "≤ 0.2"}
{"variant": "TVGW", "one-hybrid fitness for binding NBS DNA": "≤ 0.2"}
{"variant": "QFTR", "one-hybrid fitness for binding NBS DNA": 0.287}
{"variant": "GLWR", "one-hybrid fitness for binding NBS DNA": "≤ 0.2"}
{"variant": "FGPF", "one-hybrid fitness for binding NBS DNA": "≤ 0.2"}
{"variant": "YGSP", "one-hybrid fitness for binding NBS DNA": "≤ 0.2"}
{"variant": "TPVQ", "one-hybrid fitness for binding NBS DNA": 0.763}
{"variant": "SYSK", "one-hybrid fitness for binding NBS DNA": "≤ 0.2"}
{"variant": "ASPA", "one-hybrid fitness for binding NBS DNA": "≤ 0.2"}
{"variant": "GFST", "one-hybrid fitness for binding NBS DNA": "≤ 0.2"}
{"variant": "QQSY", "one-hybrid fitness for binding NBS DNA": 0.21}
{"variant": "TSAP", "one-hybrid fitness for binding NBS DNA": "≤ 0.2"}
{"variant": "KPPA", "one-hybrid fitness for binding NBS DNA": "≤ 0.2"}
{"variant": "LRMG", "one-hybrid fitness for binding NBS DNA": "≤ 0.2"}
{"variant": "NILS", "one-hybrid fitness for binding NBS DNA": "≤ 0.2"}
{"variant": "TGYI", "one-hybrid fitness for binding NBS DNA": "≤ 0.2"}
{"variant": "FTSL", "one-hybrid fitness for binding NBS DNA": "≤ 0.2"}
{"variant": "TYVN", "one-hybrid fitness for binding NBS DNA": "≤ 0.2"}
{"variant": "MRQT", "one-hybrid fitness for binding NBS DNA": "≤ 0.2"}
{"variant": "PRYF", "one-hybrid fitness for binding NBS DNA": "≤ 0.2"}
{"variant": "CILG", "one-hybrid fitness for binding NBS DNA": "≤ 0.2"}
{"variant": "RGMD", "one-hybrid fitness for binding NBS DNA": "≤ 0.2"}
{"variant": "RNRR", "one-hybrid fitness for binding NBS DNA": 0.504}
{"variant": "GGTA", "one-hybrid fitness for binding NBS DNA": "≤ 0.2"}
{"variant": "IQSR", "one-hybrid fitness for binding NBS DNA": "≤ 0.2"}
{"variant": "NYDR", "one-hybrid fitness for binding NBS DNA": "≤ 0.2"}
